Test results from the supplement of paper PMC3334620.
In all, about 33,000 sequences were measured (“E-score (-0.5 to 0.5)”: median about -0.021, highest 2% from about 0.32 on). Some of the results follow.

Each sequence was assayed against T1, Zap1 (UniProt P47043) (assay: PBM E-score (8-mer binding enrichment) (E-score (-0.5 to 0.5)); higher = stronger / more preferred TF binding; most listed sequences are background and not binding sites). Details: protein concentration: 200 nM; construct: GST-full length.
T1 sequence: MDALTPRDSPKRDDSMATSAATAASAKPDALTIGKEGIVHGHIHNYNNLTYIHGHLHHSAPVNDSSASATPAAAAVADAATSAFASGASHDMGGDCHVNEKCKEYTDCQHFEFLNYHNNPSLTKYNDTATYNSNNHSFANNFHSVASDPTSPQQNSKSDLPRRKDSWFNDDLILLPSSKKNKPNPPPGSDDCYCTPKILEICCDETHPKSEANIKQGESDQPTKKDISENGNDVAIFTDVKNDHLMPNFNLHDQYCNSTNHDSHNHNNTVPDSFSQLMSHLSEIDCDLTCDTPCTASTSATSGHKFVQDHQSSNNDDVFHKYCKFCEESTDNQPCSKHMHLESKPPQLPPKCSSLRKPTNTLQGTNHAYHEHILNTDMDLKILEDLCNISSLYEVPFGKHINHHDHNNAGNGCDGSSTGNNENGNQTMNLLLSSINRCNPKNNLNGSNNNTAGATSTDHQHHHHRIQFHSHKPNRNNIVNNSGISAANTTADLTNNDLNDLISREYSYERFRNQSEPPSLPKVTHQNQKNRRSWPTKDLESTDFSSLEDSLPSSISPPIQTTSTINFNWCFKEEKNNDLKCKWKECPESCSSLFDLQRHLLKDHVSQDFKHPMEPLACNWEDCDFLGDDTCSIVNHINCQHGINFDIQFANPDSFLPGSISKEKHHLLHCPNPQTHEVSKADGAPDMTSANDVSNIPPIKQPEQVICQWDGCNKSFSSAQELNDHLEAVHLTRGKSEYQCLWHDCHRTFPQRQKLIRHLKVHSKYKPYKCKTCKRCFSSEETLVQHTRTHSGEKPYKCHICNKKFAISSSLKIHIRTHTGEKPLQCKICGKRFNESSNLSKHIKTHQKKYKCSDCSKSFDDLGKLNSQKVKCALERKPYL
Experimental: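 Universal 'all 10-mer' protein binding microarrays (Agilent AMADID 015681) probed with GST-tagged S. cerevisiae TFs (full-length or DBD) made by in vitro transcription/translation (PURExpress), about 100-200 nM. Bound TF was detected with fluorescent anti-GST. Each ungapped 8-mer (which stands for itself and its reverse complement) is scored by the PBM enrichment score (E-score), a modified Wilcoxon-Mann-Whitney statistic from -0.5 to +0.5, computed with the Universal PBM Analysis Suite. Scale: above 0.35 generally sequence-specific binding.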

| Sequence | PBM E-score |
| --- | --- |
| CCATTTTA | 0.133 |
| CGTGGCCA | 0.0519 |
| AACTTTCT | 0.102 |
| ATTTCTCC | 0.0117 |
| ATAGTAGC | 0.0528 |
| GGACGGCA | -0.254 |
| CGGATCGC | 0.0251 |
| GTGTGACA | -0.117 |
| AAGCTGAA | -0.0829 |
| ACTTGCCG | -0.199 |
| ATCGAGTG | 0.0271 |
| GGAGCACC | -0.0356 |
| AGTATGGC | -0.195 |
| CTGACAAC | 0.071 |
| AGGTTTCG | 0.0746 |
| ATCAGGAC | -0.0926 |
| GTCCGCGA | 0.0514 |
| ATCGCCGC | -0.0186 |
| AAGGTGCC | 0.0573 |
| GGCCTCCA | 0.07 |
| GTTGATAA | 0.188 |
| GAGAATGA | 0.0402 |
| ACGGCTTC | -0.241 |
| CTGCAGCC | -0.0712 |
| CGACCACG | -0.0755 |

| Sequence | PBM E-score |
| --- | --- |
| ATACAAAT | 0.156 |
| TAATAGCA | 0.0302 |
| ACTGTTGG | -0.153 |
| ATTTCTTA | -0.0462 |
| GCCCCCGA | -0.0626 |
| AGACGAAT | -0.116 |
| AAGCATCG | -0.159 |
| ACCGATCT | -0.122 |
| ATCTTCCG | -0.0467 |
| CGATGAAG | -0.0144 |
| AGAGTCTC | -0.194 |
| CCGCAATC | 0.103 |
| AGGGGATA | -0.0015 |
| CCTTAACA | 0.116 |
| ATTTAGTG | 0.191 |
| CTACTCCC | -0.175 |
| ATGATATA | 0.0247 |
| AGGTGTAT | 0.00014 |
| ACGGTTAC | 0.411 |
| ATAGCACA | 0.0876 |
| CTTGGGAC | -0.0077 |
| CGTAAACG | -0.252 |
| AAGTCTGT | -0.117 |
| CTACCGTA | 0.142 |
| ACCGTTTC | 0.0929 |

| Sequence | PBM E-score |
| --- | --- |
| GACCGCCC | -0.00091 |
| CGGGTTGC | 0.18 |
| AAATAAAC | 0.122 |
| ATACGAAG | 0.00666 |
| CCGACAGC | -0.279 |
| CCCTTTAG | 0.127 |
| CTACTAGA | 0.00676 |
| TAATGCAA | -0.0171 |
| ATCTCTCC | -0.211 |
| AAGACGAA | -0.0651 |
| CAAATATG | -0.047 |
| CTAACCAG | 0.146 |
| GATCAATC | -0.0229 |
| GCCAACGC | -0.00447 |
| AAACAGGA | 0.155 |
| CCGTAGGA | -0.185 |
| CAGCGCTG | -0.0316 |
| ACATCCGT | 0.00877 |
| ATGGCTGG | -0.17 |
| CCGGGGTC | 0.348 |
| ATCAAGGC | -0.0458 |
| ACGCAACA | 0.114 |
| GATCACCA | 0.188 |
| CTCAGCAC | -0.0316 |
| CACCAGCA | -0.108 |

| Sequence | PBM E-score |
| --- | --- |
| AAACGGCC | 0.0324 |
| CGGGTTGA | 0.24 |
| CCTGGAAA | 0.125 |
| GTGGAGAA | -0.145 |
| TACGCGTA | 0.135 |
| CCTTCGCA | -0.144 |
| ACTACGAA | 0.029 |
| GTTCCCTA | -0.0435 |
| GCTACCTA | 0.0243 |
| GTGATGCA | 0.00915 |
| TCTTGTCA | 0.164 |
| TAAATTTA | 0.252 |
| CGATAATA | -0.0489 |
| GATCACTA | 0.093 |
| AACGTCCG | 0.0175 |
| AGTCCGCA | -0.0314 |
| CGTCCGTC | -0.15 |
| GAGCGGTA | 0.108 |
| CTTCGTCC | -0.273 |
| ACAAAAGA | 0.138 |
| ATGGGTAC | 0.328 |
| TAAAGCGA | 0.0443 |
| AACCATCT | 0.02 |
| AGTTTAGG | -0.0723 |
| CACGATGC | -0.176 |

| Sequence | PBM E-score |
| --- | --- |
| CGTTCGAA | 0.0668 |
| AATGCAGA | 0.0881 |
| CCCCTCGC | 0.0553 |
| GGACTACA | 0.0317 |
| GCTGATAA | 0.116 |
| CGGAAAAC | -0.016 |
| CATAGATC | -0.0935 |
| TGGTGTAA | 0.23 |
| CACTCCCA | -0.107 |
| AACTAAAA | 0.255 |
| AAACTACG | -0.0194 |
| AACGTATA | -0.0404 |
| CGCATGAG | -0.104 |
| ATTACAAT | -0.012 |
| ATTCGTCG | 0.0403 |
| CTATGGGA | -0.0388 |
| AAGTGCCC | -0.189 |
| ACCTTTCA | 0.257 |
| GACGATCC | -0.105 |
| ACGCGGCG | 0.0082 |
| GTCCTAGA | -0.0988 |
| AAACCATG | 0.211 |
| TGACGTCA | 0.13 |
| GAACTACC | 0.162 |
| AGAACAGC | -0.147 |

| Sequence | PBM E-score |
| --- | --- |
| ATCATAGC | -0.0819 |
| GAACACGC | -0.0693 |
| CTGCTGAC | 0.0872 |
| CTAATCTA | -0.13 |
| GTCAGATA | -0.00942 |
| ACGCTCAC | -0.0884 |
| CTGATTGC | -0.0621 |
| GATACAGC | -0.107 |
| TCTTAAGA | 0.00469 |
| ATATCTAA | 0.0975 |
| AAATCGGG | 0.14 |
| CTCGGAGA | -0.152 |
| CTCCAATC | -0.18 |
| GCCCAACC | -0.0373 |
| CAGACACG | -0.165 |
| ATATTGTC | 0.0751 |
| AAGAGCCT | -0.219 |
| ATGCTAAG | 0.0592 |
| AACGTGTG | -0.143 |
| ACGCACTC | -0.149 |
| AAACTTGA | -0.124 |
| AGTAGCAT | -0.201 |
| AAGACTCA | -0.249 |
| AGTTGCAA | 0.00202 |
| GCCCCCCA | -0.337 |

| Sequence | PBM E-score |
| --- | --- |
| ACTTTTCT | 0.114 |
| ATGCTGCA | -0.0887 |
| CACACAAC | -0.00717 |
| ACTGCCGA | -0.119 |
| GCTACAGC | 0.0329 |
| GATTGGCC | -0.132 |
| AAACAGTT | -0.0683 |
| TGTAAGAA | 0.11 |
| CAATCACG | -0.157 |
| TAACTAGA | 0.227 |
| AATAATGG | 0.155 |
| GGTAGATA | 0.131 |
| CGGTTATC | 0.424 |
| ATAAACAG | 0.103 |
| ACTGAATA | -0.0283 |
| AACCCGCT | 0.161 |
| AACGACTA | -0.018 |
| AGAGACCA | 0.121 |
| CTTAGGTA | 0.136 |
| TCCGGCAA | -0.116 |
| CGAGGTAA | 0.285 |
| GGCGTAAC | 0.0681 |
